Test results published in PubChem BioAssay AID1508642 (National Center for Advancing Translational Sciences (NCATS), 2021).
Out of some 43,000 compounds screened, about 200 (0.47%) were called active. Another 12% or so got no clear call; they are omitted. Calls follow the shape of the dose curve; as a rule, active = well fitted cell-killing curve with a large enough effect; inconclusive = small, poorly fitted or top-dose-only effect, or effect the other way; inactive = flat fitted curve, though single readings scatter. This is one part of the list.

assay: Cell viability qHTS assay in S16 Pmp22-F2sN cells; details: S16 Pmp22-F2sN Schwann cells viability, CellTiter-Glo, 24 h; series mostly up to 57.5 µM; activity change, negative = cytotoxicity: at the top concentration; also: nearly all actives have a fitted effect of over 65% in size
Method in brief: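 Used to flag compounds lowering reporter output through toxicity, this quantitative HTS measures ATP-based CellTiter-Glo luminescence in S16 Pmp22-F2sN Schwann cells after 24 h compound exposure at 37C.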
% is scaled to controls: 0 for no effect and ±100 for the full control effect.

SMILES | activity change, negative = cytotoxicity
CCCn1c(=N)c(C(=O)NCc2ccccc2)cc2c(=O)n3cccc(C)c3nc21 | inactive: 5.9%
Cc1ccc(CNC(=O)C(=O)NCC(c2cccs2)S(=O)(=O)c2ccccc2)cc1 (centres undefined) | inactive: 1.55%
Cc1ccc(C)c(N2CCN(c3nc4ccccc4n4nnnc34)CC2)c1 | inactive: 17.5%
O=C(COc1ccc(F)cc1)NCc1ccc2c(c1)CCN2C(=O)c1ccc(F)cc1 | inactive: -15.7%
COc1ccc(CCNC(=O)c2c3c(nc4ccccc24)C(=O)N(C2CCCCC2)C3)cc1OC | inactive: 0.926%
O=C(Nc1ccc(F)c(Cl)c1)C1CCN(c2ncccn2)CC1 | inactive: -22.9%
Oc1c(C(c2cccc(Cl)c2)N2CCOCC2)sc2nc(-c3ccco3)nn12 (centres undefined) | inactive: 4.76%
CCN1c2ccccc2-c2nc(SCC(=O)Nc3cc(C)c(Cl)cc3OC)ncc2S1(=O)=O | inactive: 2.86%
COC(=O)c1ccccc1NC(=O)C1CCCN(C(=O)c2cnn(-c3ccc(F)cc3)c2-n2cccc2)C1 (centres undefined) | inactive: -5.92%
COCCn1c(=O)[nH]c2cc(C(=O)N3CCN(c4ccc(F)cc4)CC3)ccc2c1=O | inactive: 4.94%
Cc1cc(Br)cc(C)c1OCC(=O)Nc1ccc(S(=O)(=O)Nc2ncccn2)cc1 | inactive: -16.2%
Cc1cc(-n2c(C)nc3ccccc3c2=O)ccc1NC(=O)c1cccc([N+](=O)[O-])c1C | inactive: -5.9%
Cc1cccc(OCC(=O)Nc2ccc(S(=O)(=O)N(Cc3ccccc3)c3ccccc3)cc2)c1 | inactive: 1.53%
CCOc1cccc(C2Oc3nc(SC)nnc3-c3ccccc3N2C(C)=O)c1OC (centres undefined) | inactive: -20.4%
Cc1cc(C)cc(NC(=O)Cn2c(C)cc(C)c(C#N)c2=O)c1 | inactive: -7.04%
O=C(CSc1nc2ccccc2n1Cc1cccc(C(F)(F)F)c1)NCc1ccccc1 | inactive: 1.48%
O=C(O)c1ccc(CSc2nc3cccnc3n2Cc2cccc(F)c2)cc1 | inactive: -0.923%
CC(=O)Nc1ccc(NC(=O)c2c(-c3ccccc3)noc2C)cc1 | inactive: -7.56%
CC(=O)N1CCc2cc(CNS(=O)(=O)c3ccccc3C(F)(F)F)ccc21 | inactive: 2.28%
Cc1nn(CC(=O)NCc2ccco2)c(=O)c2nn(-c3ccccc3)c(C)c12 | inactive: -0.296%

SMILES | activity change, negative = cytotoxicity
O=C(CSc1nc2c([nH]c3ccccc32)c(=O)n1-c1ccc(F)cc1)Nc1ccc2c(c1)OCO2 | inactive: 5.27%
Cc1ccc(S(=O)(=O)C(CNC(=O)C(=O)NCCc2ccc(F)cc2)c2cccs2)cc1 (centres undefined) | inactive: 4.9%
COc1cc(NC(=O)CSc2ccc(-c3sc(C)nc3C)nn2)cc(OC)c1 | inactive: -18.1%
COc1ccc(Cl)cc1NC(=O)c1oc2ccc(S(=O)(=O)N3CCCCC3)cc2c1C | inactive: 3.93%
COc1ccc(N2CCN(C(=O)c3ccc(CS(=O)c4cccc(C)c4)o3)CC2)cc1 (centres undefined) | inactive: -7.19%
Nc1ncc(S(=O)(=O)N2CCN(c3ccccc3)CC2)cn1 | inactive: 4.04%
COC(=O)CC1Oc2ccc(Cl)cc2-n2cc(-c3ccc(C)cc3)nc21 (centres undefined) | inactive: 22.1%
Cc1ccc2oc(=O)c(-c3nc(-c4cccs4)no3)cc2c1 | inactive: 1.62%
CCN(c1ccc(C)cc1C)S(=O)(=O)c1nnc(NC(=O)c2ccc(F)cc2)s1 | inactive: -16.6%
CCN(Cc1ccccc1)C(=O)CN1C(=O)COc2ccc(S(=O)(=O)N3CCOCC3)cc21 | inactive: -0.619%
COc1ccc(OC)c(NC(=O)CN(c2ccccc2OC)S(=O)(=O)c2ccc(C)cc2)c1 | inactive: 5.58%
O=C(Nc1cccc(C(=O)OCc2cc(=O)n3ccsc3n2)c1)c1ccc(F)cc1 | inactive: -20.9%
Cc1csc2nc(COC(=O)c3ccc(NC(=O)c4ccccc4Br)cc3)cc(=O)n12 | inactive: -0.0903%
CCOCCCNC(=O)CCC(=O)NNc1nc2ccccc2c2nc(C)nn12 | inactive: 10.3%
Cc1nc2nc(SCC(=O)NCCc3ccc(Cl)cc3)nn2c(C)c1Cc1c(F)cccc1Cl | inactive: -7.37%
Cc1ccc(NC(=O)C2CCCN2S(=O)(=O)c2ccc3c(c2)n(C)c(=O)c(=O)n3C)cc1 (centres undefined) | inactive: -0.693%
Cc1nn(CCC(=O)Nc2cccc(C#N)c2)c(C)c1S(=O)(=O)N1CCC(C)CC1 | inactive: -0.733%
COc1ccc(-n2cnc3cc(C(=O)NCCC4=CCCCC4)ccc32)cc1 | inactive: -25.3%
COC(=O)c1ccccc1NC(=O)Cc1nc(-c2ccc(OC)cc2)no1 | inactive: 2.31%
Cc1ccc(CCNC(=O)c2ccc(CS(=O)(=O)Cc3ccc(Cl)cc3)o2)cc1 | inactive: 0.0201%

SMILES | activity change, negative = cytotoxicity
CN(CC(=O)NCc1ccc(Cl)cc1)S(=O)(=O)c1ccc2c(c1)c(=O)n(C)c(=O)n2C | inactive: -14%
CCOC(=O)c1scc(-c2ccc(C)cc2)c1S(=O)(=O)Nc1cc(C)ccc1C | inactive: 7.4%
COc1cc(Cl)c(C)cc1NC(=O)Cn1cnc2sc(C)c(S(=O)(=O)N3CCCCC3)c2c1=O | inactive: -18.2%
Cc1noc(NS(=O)(=O)c2ccc(NC(=O)COc3ccccc3Br)cc2)c1C | inactive: -2.44%
CCOc1ccccc1NC(=O)Nc1ccccc1OCc1cc(=O)n2ccccc2n1 | inactive: 11.7%
COc1cccc(-c2nnc(SCC(=O)N3CCc4ccccc43)o2)c1 | inactive: 1.59%
CCS(=O)(=O)c1c(S(=O)(=O)CC)c2cc(C(C)(C)C)ccn2c1C(=O)c1ccc(F)cc1 | inactive: 3.27%
CCOc1ccccc1NC(=O)Cn1c(=O)n(-c2ccc(C)c(C)c2)c(=O)c2c(C)c(C(=O)N(C)C)sc21 | inactive: -5.76%
COc1ccc(-n2c(=O)c3c4c(sc3n(Cc3c(F)cccc3Cl)c2=O)CN(C(C)=O)CC4)cc1OC | inactive: -0.275%
O=C(Nc1ccc(F)cc1)c1ncn(-c2ccccc2)n1 | inactive: -18%
COC(=O)c1sc2cccc(F)c2c1S(=O)(=O)NCc1ccc(F)cc1 | inactive: 6.05%
COc1ccc(C2CC(=O)N(Cc3cccc(C)c3)c3c2c(C)nn3-c2nc(C)cc(C)n2)c(OC)c1 (centres undefined) | inactive: -25.9%
CCOC(=O)c1cnc2c(Cl)c(Cl)ccc2c1Nc1ccc(N(C)C)cc1 | inactive: 16.8%
CCCCSCCCNC(=O)c1cn(CC)c2ccc(S(=O)(=O)N(C)C3CCCCC3)cc2c1=O | inactive: 2.51%
COc1cccc(-c2nc(SCC(=O)NCc3ccccc3)c3c(=O)n(C)c(=O)n(C)c3n2)c1 | inactive: -2.13%
Cc1ccc(CCNC(=O)CCS(=O)(=O)c2ccc3c(c2)oc(=O)n3C)cc1 | inactive: 2.41%
O=C(Cn1ccc2cc(S(=O)(=O)N3CCCCCC3)ccc21)NCCc1ccccc1Cl | inactive: -8.55%
COc1cccc(N2CCN(S(=O)(=O)c3ccc(-c4cc(C(F)(F)F)on4)s3)CC2)c1 | inactive: -2.56%
Cc1ccc(-c2noc(CN(C(=O)c3ccc(C(C)(C)C)cc3)C(C)C)n2)cc1 | inactive: -7.3%
